Among all 120,000 compounds or so, about 5,300 (4.4%) were called active. The inconclusive results got no clear call from the source; some entries with a clear call stand among them for comparison. Calls come from the whole dose curve; as a rule, active = well fitted inhibition curve with a large enough effect; inconclusive = small, poorly fitted or top-dose-only effect; inactive = no such curve, though single readings can be large or run the other way. Potencies of inconclusive entries are doubtful fits and often do not repeat.
Assay: qHTS Primary assay for Inhibitors of Plasmodium falciparum Dd2 growth in vitro; note: nearly all actives have a fitted effect of over 65% in size;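 for activity, negative = inhibition: plate controls were DMSO vehicle for no effect and reference drug for full effect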
Details: P. falciparum Dd2 growth, SYBR Green, 72 h; activity, negative = inhibition: at 28.9 µM (top of the series) unless noted; series mostly up to 28.9 µM
How it was run: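 Readout: SYBR Green fluorescence, 485 nm excitation, 535 nm emission, after ~16 h lysis at 37C. Before that, Dd2-infected red cells (2.5% hematocrit) grew 72 h with compound, 29 uM top final concentration.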
Potency is the fitted concentration of half-maximal effect; tags give direction and shape of the fitted curve.

Which “activity, negative = inhibition” value does the source give for `CCN(C(=O)Cn1ncc2c(=O)oc3ccc(C)cc3c21)c1cc(OC)ccc1OC` here?
The value was inactive: -18.2%.

Which Potency does the source give for `O=c1[nH]c(C2CCN(Cc3ccc(-c4cccnc4)cc3)CC2)nc2ccc(F)cc12` here?
The Potency was inconclusive: 5.01 µM [inhibitor, partial curve, poor fit].

With `O=C(CCC1CCCC1)N1CCc2c([nH]c3ccccc23)C1c1ccc(Cl)cc1` (stereo not given) as the compound, how does the Potency read?
The Potency was inconclusive: 5.01 µM [inhibitor, partial curve, poor fit].

Which “activity, negative = inhibition” value does the source give for `CCc1cccc(C)c1NS(=O)(=O)c1cc(-c2cc(C)no2)ccc1C` here?
Its value is inactive: -14.8%.

For `Cc1ccc(NC(=O)C2CCN(c3cc(C(F)(F)F)ncn3)CC2)cc1`, which Potency is on record?
The Potency was inconclusive: 0.316 µM [inhibitor, full curve].

For `CCC[C@H]1CN(Cc2c(C)noc2C)C[C@@H]1NC(=O)CN(C)C(N)=O`, which Potency is on record?
Its Potency is inconclusive: 17.8 µM [inhibitor, single point].

With `O=C1CN(Cc2ccc(-c3ccsc3)cc2)CCN1c1ccc(Cl)nn1` as the compound, how does the “activity, negative = inhibition” value read?
The value was inactive: -8.99%.

Which Potency does the source give for `CCc1ccc(NC(=O)c2ccc(F)c(S(=O)(=O)NC3CCCCCC3)c2)cc1` here?
Its Potency is inconclusive: 3.98 µM [inhibitor, full curve, poor fit].

For `Cc1coc2c(C)c3oc(=O)c(CC(=O)NCc4ccccc4)c(C)c3cc12`, which “activity, negative = inhibition” value is on record?
The value was inactive: -7.72%.

With `Cc1cc(C(F)(F)F)nn1CC(=O)NCCc1ncc(C)n1CC1CC1` as the compound, how does the Potency read?
The Potency was inconclusive: 0.794 µM [inhibitor, full curve, poor fit].

With `c1ccc(-c2ccnc3nc(-c4cccs4)nn23)cc1` as the compound, how does the “outcome” value read?
Its value is “inactive”.

Which “activity, negative = inhibition” value does the source give for `COCCNC(=O)[C@H]1C[C@H](Oc2cccnc2)CN1C(=O)NCc1ccccc1` here?
The value was inactive: -8.63%.

With `COc1ccccc1CNC(=O)C1CCN(S(=O)(=O)c2c(C)noc2/C=C/c2c(C)cc(C)cc2C)CC1` as the compound, how does the Potency read?
Its Potency is inconclusive: 15.8 µM [inhibitor, single point].

With `O=C(Nc1ccc2nc(SCCOc3ccccc3)sc2c1)c1cccs1` as the compound, how does the Potency read?
Its Potency is active: 3.16 µM.

Which Potency does the source give for `O=C(Nc1ccc(C(F)(F)F)cc1)c1cc(S(=O)(=O)NC2CCCCC2)ccc1F` here?
The Potency was active: 7.08 µM.

With `O=C(O)c1ccc(CN2CCC(c3cc(N4CCCC4)ncn3)CC2)cc1` as the compound, how does the “activity, negative = inhibition” value read?
Its value is inactive: -22.4%.

Which “activity, negative = inhibition” value does the source give for `CS(=O)(=O)N1CCC(C2CCN(C3CCSCC3)C2)CC1` (stereo not given) here?
The value was inactive: -29.1%.

For `COc1ccc(-n2nc(C)c([C@@H]3C=C[C@@H](NC(=O)NCc4ccccc4)C3)c2C)cc1`, which Potency is on record?
The Potency was inconclusive: 2.82 µM [inhibitor, single point].

For `CN1CCN(C(=O)c2ccc3c(c2)N(Cc2cccc(Cl)c2)C(=O)c2ccccc2S3(=O)=O)CC1`, which “outcome” value is on record?
Its value is “inactive”.

Which “outcome” value does the source give for `O=C(NCCc1ccccc1)[C@@H]1C[C@@H](c2ccc(F)cc2)N([S+](=O)([O-])c2ccccc2)C1` here?
The value was “inactive”.

For `COc1ccc(Cn2c(C(=O)O)c(CNCC(C)c3ccccc3)c3ccc(OC)cc32)cc1` (stereo not given), which Potency is on record?
Its Potency is inconclusive: 11.2 µM [inhibitor, single point].

With `COc1ccc(NC(=O)CN2C(=O)C(c3ccc(C(C)(C)C)cc3)=NC2(C)C)cc1Cl` as the compound, how does the Potency read?
The Potency was inconclusive: 7.94 µM [inhibitor, partial curve].

With `COc1ncccc1CN1CCCn2nc(C)c(-c3ccccc3C(C)C)c21` as the compound, how does the Potency read?
Its Potency is inconclusive: 5.62 µM [inhibitor, single point].

Which Potency does the source give for `Cc1ccc(C)c(N2CCN(C(=O)Nc3cn(CC(C)C)c(=O)c4ccccc34)CC2)c1` here?
Its Potency is inconclusive: 17.8 µM [inhibitor, single point].

With `O=C(Cc1cccnc1)N1CCC2(CC1)CN(Cc1ccccc1)CC2CO` (stereo not given) as the compound, how does the Potency read?
The Potency was inconclusive: 20 µM [inhibitor, partial curve, poor fit].

With `Cc1cc2nc3n(c(=O)c2n1CC(=O)Nc1ccc(Br)cc1F)CCCCC3` as the compound, how does the “activity, negative = inhibition” value read?
Its value is inactive: -4.6%.

Which Potency does the source give for `O=C(Cc1ccccc1)NCCC1CCN(C(=O)Nc2cccc(F)c2)CC1` here?
Its Potency is inconclusive: 17.8 µM [inhibitor, single point].

Which Potency does the source give for `COc1cccc(CCNC(=O)Cn2c(-c3cccs3)cc3ccccc32)c1` here?
Its Potency is inconclusive: 11.2 µM [inhibitor, single point].

Which Potency does the source give for `O=C(NC1CC1)[C@H]1CN2CCC1C[C@@H]2Cn1cc(CSc2ccccc2)nn1` (stereo not given in full) here?
Its Potency is inconclusive: 15.8 µM [inhibitor, single point].

For `CCC1Oc2ccc(NC(=O)C3CCCC3)cc2CN(Cc2ccccc2Cl)C1=O` (stereo not given), which “activity, negative = inhibition” value is on record?
The value was inactive: -17.5%.

Which “outcome” value does the source give for `CCOc1cc(=O)n2c(c1C(=O)Nc1ccc(F)cc1F)CCCC2` here?
Its value is “inactive”.

With `O=C(c1ccc2c(c1)N(Cc1ccccc1)C(=O)c1ccccc1S2(=O)=O)N1CCCC1` as the compound, how does the Potency read?
The Potency was inconclusive: 7.94 µM [inhibitor, partial curve, poor fit].

Which Potency does the source give for `CCCCCC(=O)N1c2ccccc2C(C)(c2ccccc2)CC1(C)C` (stereo not given) here?
The Potency was inconclusive: 11.2 µM [inhibitor, single point].

Which Potency does the source give for `COc1ccc(CN2CCC3(CC2)CC(O)CCO3)c(OC)c1` (stereo not given) here?
Its Potency is inconclusive: 0.141 µM [inhibitor, full curve, poor fit].

For `O=C(NCc1ccccc1F)c1nc2sccn2c1Br`, which Potency is on record?
Its Potency is inconclusive: 3.98 µM [inhibitor, single point].

With `O=C(c1ccc(Cn2cccn2)o1)N1CCCC2(CCC(=O)N(C3CC3)C2)C1` (stereo not given) as the compound, how does the “activity, negative = inhibition” value read?
Its value is inactive: 5.54%.

For `CN(C)Cc1cc(CC2(NCc3ccccc3Cl)COC2)no1`, which “activity, negative = inhibition” value is on record?
The value was inactive: -11.8% [at 44.1 µM].

For `O=C(c1ccccc1Br)N(Cc1ccco1)C1CCS(=O)(=O)C1` (stereo not given), which “outcome” value is on record?
Its value is “inactive”.

Which Potency does the source give for `Cc1ccc2oc(CN3CCCn4nc(C(O)CN(C)C)cc4C3)c(C)c2c1` (stereo not given) here?
Its Potency is inconclusive: 11.2 µM [inhibitor, single point].

For `CCOC(=O)c1cc(-c2ccc(C)cc2)n(CCC(=O)Nc2nc3c(C)cccc3s2)c1C`, which Potency is on record?
The Potency was inconclusive: 3.55 µM [inhibitor, full curve, poor fit].

For `O=C(c1ccc(C(F)(F)F)cc1)N1CCC2(CC1)CCN(CCc1ccccc1)c1ccccc1O2`, which Potency is on record?
The Potency was inconclusive: 11.2 µM [inhibitor, partial curve, poor fit].

With `Cc1ccc2c(c1)c(=O)c1ccccc1n2CCCC(=O)Nc1ccc(C)c(F)c1` as the compound, how does the Potency read?
Its Potency is inconclusive: 10 µM [inhibitor, single point].

With `Cc1nnc2c(N3CCN(c4ccccc4F)CC3)nc3ccccc3n12` as the compound, how does the Potency read?
The Potency was inconclusive: 11.2 µM [inhibitor, single point].

Which Potency does the source give for `CCOC(=O)N1CCN(Cc2nc3cc(NC(C)=O)ccc3n2C(C)C)CC1` here?
The Potency was inconclusive: 11.2 µM [inhibitor, single point].

Which Potency does the source give for `Cc1cc(C)cc(-n2c(SCC(=O)NCc3ccco3)nc3c([nH]c4ccccc43)c2=O)c1` here?
The Potency was inconclusive: 0.178 µM [inhibitor, full curve, poor fit].

For `Cc1ccccc1C(=O)N1CCc2nc(C(C)C)nc(-c3ccc(O)cc3)c2CC1`, which Potency is on record?
The Potency was inconclusive: 10 µM [inhibitor, single point].

Which Potency does the source give for `CC(C)(C)c1cnc([C@@H]2COCCN2Cc2ccc(Cl)cc2)[nH]1` here?
The Potency was active: 3.98 µM.

Which Potency does the source give for `COc1ccccc1N1CCN(C(=O)C2CCN(S(=O)(=O)c3c(C)noc3/C=C/c3ccc(C)cc3)CC2)CC1` here?
Its Potency is inconclusive: 17.8 µM [inhibitor, single point].

With `COc1cccc(Cn2c(=O)n(CC3CCC(C(=O)N4CCCCC4)CC3)c(=O)c3sccc32)c1` (stereo not given) as the compound, how does the Potency read?
Its Potency is active: 10 µM.

With `COc1ccc(C(=O)NC2CCN(c3cc(-c4ccc(Cl)cc4)[nH]n3)C2)c(C)c1` (stereo not given) as the compound, how does the Potency read?
Its Potency is inconclusive: 1.78 µM [inhibitor, single point].

Which Potency does the source give for `C#CCNC(=O)[C@@H]1Cc2cn(Cc3c(C)noc3C)c3cccc(c23)[C@H](CC(C)C)N1` here?
Its Potency is inconclusive: 0.398 µM [inhibitor, partial curve, poor fit].

With `O=C(Nc1ccccc1)c1cnc2n1CCN(Cc1c[nH]c3ccccc13)CC2` as the compound, how does the Potency read?
Its Potency is inconclusive: 31.6 µM [inhibitor, single point].

For `Cc1ccc(C2c3c(-c4cc(C)ccc4O)n[nH]c3C(=O)N2Cc2ccco2)cc1` (stereo not given), which Potency is on record?
Its Potency is inconclusive: 12.6 µM [inhibitor, single point].

With `CC(=O)N[C@H]1CCN(C(=O)C[C@@H]2[C@H](O)CCC3[C@](C)(CO)[C@H](OC(=O)Nc4cccc(F)c4)CC[C@]32C)C1` (stereo not given in full) as the compound, how does the Potency read?
The Potency was inconclusive: 11.2 µM [inhibitor, single point].

For `Oc1ccc(Nc2nc3ccccc3n3cnnc23)cc1`, which Potency is on record?
The Potency was inconclusive: 10 µM [inhibitor, partial curve, poor fit].

Which Potency does the source give for `Cc1cccc(Cn2c(=O)n(Cc3ccc(C(=O)NC4CCN(Cc5ccccc5)CC4)cc3)c(=O)c3ccccc32)c1` here?
Its Potency is inconclusive: 1.78 µM [inhibitor, partial curve, poor fit].

Which “activity, negative = inhibition” value does the source give for `COc1cccc(C(=O)N2CCC3(CC2)N(C2CCCC2)C(=O)CS3=O)c1` (stereo not given) here?
The value was inactive: 14.1%.

Which Potency does the source give for `CCc1nc(C)c(C(=O)N2CCC(c3[nH]ncc3-c3ccccc3C)CC2)o1` here?
Its Potency is inconclusive: 17.8 µM [inhibitor, single point].

Which Potency does the source give for `COc1ccc(CC(=O)N[C@@H]2CN(Cc3ccccc3)C[C@H]2CO)cc1` here?
The Potency was inconclusive: 8.91 µM [inhibitor, single point].

Which Potency does the source give for `CN1CCc2c([nH]c3ccccc23)C12CCN(C(=O)c1cccs1)CC2` here?
The Potency was inconclusive: 10 µM [inhibitor, single point].

For `COc1ccccc1CC(=O)NC(C)C(=O)N1CCN(c2ccccn2)CC1` (stereo not given), which “outcome” value is on record?
The value was “inactive”.

Which “activity, negative = inhibition” value does the source give for `Cn1ncc(N2CCN(CC3(O)CCCNC3)CC2)cc1=O` (stereo not given) here?
The value was inactive: -2.74%.

Which Potency does the source give for `CCN(CC)C(=O)c1sc(NC(=O)c2nc3ncccn3n2)c(C(=O)OC)c1C` here?
Its Potency is inconclusive: 11.2 µM [inhibitor, partial curve, poor fit].

Which Potency does the source give for `O=c1c2c(n(Cc3cccnc3)n1-c1ccccc1)CN(Cc1ccccc1Cl)CC2` here?
The Potency was inconclusive: 1.58 µM [inhibitor, full curve].

For `c1ccc2ncc(CN3CCC[C@H]3c3nc(-c4ccc(OC5CCCCC5)nc4)no3)cc2c1`, which Potency is on record?
The Potency was inconclusive: 17.8 µM [inhibitor, single point].
